{"source": "PubChem BioAssay AID485367", "about": "(National Center for Advancing Translational Sciences (NCATS), 2010)", "note": "The whole screen tested about 330,000 compounds, of which about 560 (0.17%) were called active. Inconclusive means that the source gave no clear call. Such entries were picked first, then a sample of the others. Calls come from the whole dose curve; as a rule, active = well fitted inhibition curve with a large enough effect; inconclusive = small, poorly fitted or top-dose-only effect, or effect the other way; inactive = flat fitted curve, though single readings scatter. Potencies of inconclusive entries are left out as doubtful fits. Potency is the fitted concentration of half-maximal effect; tags give direction and shape of the fitted curve.", "data": [{"target": "ATP-dependent 6-phosphofructokinase (Trypanosoma brucei brucei) (UniProt O15648)", "sequence (O15648 whole entry, looked up)": "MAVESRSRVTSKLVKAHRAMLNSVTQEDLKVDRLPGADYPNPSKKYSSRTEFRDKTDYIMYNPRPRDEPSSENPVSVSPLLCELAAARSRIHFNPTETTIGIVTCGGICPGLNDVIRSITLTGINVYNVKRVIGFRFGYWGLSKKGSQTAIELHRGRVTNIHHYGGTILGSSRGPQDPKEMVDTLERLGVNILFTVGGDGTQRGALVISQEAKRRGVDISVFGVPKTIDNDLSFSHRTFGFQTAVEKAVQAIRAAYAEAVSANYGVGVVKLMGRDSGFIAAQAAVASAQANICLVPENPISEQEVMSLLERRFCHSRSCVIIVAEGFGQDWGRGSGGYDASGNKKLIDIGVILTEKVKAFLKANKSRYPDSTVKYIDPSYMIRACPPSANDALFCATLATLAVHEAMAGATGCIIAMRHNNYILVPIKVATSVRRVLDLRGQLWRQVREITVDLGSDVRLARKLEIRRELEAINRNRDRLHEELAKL", "experiment": "qHTS Assay to Find Inhibitors of T. brucei phosphofructokinase; note: nearly all actives have a fitted effect of over 60% in size;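 for activity, negative = inhibition: 0% = uninhibited 1x PFK enzyme wells and -100% = no-enzyme wells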", "conditions": "T. brucei PFK, ADP-Glo luminescence; activity, negative = inhibition: at 57.5 µM (top of the series)", "outline": "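ADP-Glo luminescence quantified ADP after 45 min at room temperature, with 1.25 nM T. brucei PFK, 0.1 mM ATP and 0.5 mM fructose-6-phosphate in pH 8.0 TEA buffer. qHTS titrations up to 57 µM; curves classified by quality.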", "values": [{"molecule": "COc1cc(S(=O)(=O)N2CCOCC2)ccc1NC(=O)COC(=O)C12CC3CC(CC(C3)C1)C2", "Potency": "inconclusive [falling, single point]"}, {"molecule": "CC(OC(=O)CN1C(=O)c2ccccc2C1=O)C(=O)NC1CCCCC1C", "note": "(configuration not stated)", "Potency": "inconclusive [falling, single point]"}, {"molecule": "CCOc1ccc(NC(=O)C2CCN(S(C)(=O)=O)CC2)cc1", "Potency": "inactive"}, {"molecule": "COc1cc(/C=N/Nc2ccc(Cl)c(C(=O)O)c2)ccc1OC(=O)c1ccco1", "Potency": "inconclusive [activator, single point]"}, {"molecule": "COc1ccc(CCn2c(C)cc(C(=O)COC(=O)c3ccc(NC(=O)CC#N)cc3)c2C)cc1", "Potency": "inconclusive [falling, partial curve, poor fit]"}, {"molecule": "CN(C)c1ccc(C(=S)N2CCN(Cc3ccccc3)CC2)cc1", "Potency": "inconclusive [falling, single point]"}, {"molecule": "Clc1ccc(NCc2cccnc2)c(Cl)c1", "Potency": "inconclusive [falling, partial curve, poor fit]"}, {"molecule": "Cc1cccc(NC(=O)Cn2cc(C(=O)C3CC3)c3ccccc32)c1", "Potency": "inconclusive [falling, single point]"}, {"molecule": "Cc1ccc(NC2c3ncccc3C(=O)N2Cc2ccco2)c(C)c1", "note": "(configuration not stated)", "Potency": "inconclusive [falling, single point]"}, {"molecule": "C/C=C/COC(=O)c1[nH]c2c(c1C)C(=O)CC(c1ccco1)C2", "note": "(configuration not stated)", "Potency": "inconclusive [falling, single point]"}, {"molecule": "CCN(CC)CCNc1ccc(CO)c2sc3ccccc3c(=O)c12", "Potency": "inconclusive [falling, single point]"}, {"molecule": "CCC(C)Sc1cc(-c2nc3ccccn3c2NC2CCCCC2)ccc1OC", "note": "(configuration not stated)", "Potency": "inconclusive [activator, full curve, poor fit]"}, {"molecule": "CC(/C=N/NC(=O)c1cccc(F)c1)=C\\c1ccccc1", "Potency": "inconclusive [falling, single point]"}, {"molecule": "CCN(CC)S(=O)(=O)c1cccc(C(=O)N2CC(O)CC2C(=O)O)c1", "note": "(configuration not stated)", "Potency": "inactive"}, {"molecule": "CCCC[N+](C)(C)CCC(=O)NC(C)(C)CS(=O)(=O)[O-]", "Potency": "inconclusive [falling, single point]"}, {"molecule": "COc1cccc(C(=O)NCC(=O)N2CCC3(CC2)NCCc2[nH]cnc23)c1", "Potency": "inactive"}, {"molecule": "CCOC(=O)/C=C/C(=O)Nc1cccc([N+](=O)[O-])c1", "Potency": "inconclusive [falling, single point]"}, {"molecule": "O=C(N/N=C/c1ccc(O)c(O)c1O)/C(=C/c1ccc([N+](=O)[O-])cc1)NC(=O)c1ccccc1", "Potency": "active: 23.9 µM"}, {"molecule": "CC(C)(C)c1ccc(/C=N/NC(=O)Cc2c[nH]c3ccccc23)cc1", "Potency": "inconclusive [falling, single point]"}, {"molecule": "N#Cc1c(NC(=O)Cn2nc(C(F)(F)F)c3c2CCCC3)sc2c1CCC2", "Potency": "inconclusive [falling, partial curve]"}, {"molecule": "CC1(NC(=O)CC[N+](C)(C)CCO)CS(=O)(=O)CC1S(=O)(=O)[O-]", "note": "(configuration not stated)", "Potency": "inconclusive [falling, single point]"}, {"molecule": "N#Cc1c(N)sc(=S)c2c1CCCCC2", "Potency": "inconclusive [falling, single point]"}, {"molecule": "CCCCNC(=O)c1cn(-c2ccc(OCC)cc2)c(=O)c2cc(OC)c(OC)cc12", "Potency": "inactive"}, {"molecule": "c1csc(Cc2nn3c(-c4ccncc4)nnc3s2)c1", "Potency": "inconclusive [falling, single point]"}, {"molecule": "CCCCC[C@H](O)/C=C/[C@@H]1[C@@H](C/C=C\\CCCC(=O)OC)[C@@H](O)C[C@H]1O", "Potency": "inconclusive [falling, partial curve, poor fit]"}, {"molecule": "O=C(Nc1ccncc1)Nc1ccc(F)c(Cl)c1", "Potency": "inconclusive [falling, partial curve]"}, {"molecule": "CCOC(=O)c1c(-c2ccc(C)o2)csc1NC(=O)CN1CCC(C(N)=O)CC1", "Potency": "inconclusive [falling, single point]"}, {"molecule": "O=C(NC(Nc1ncc(S(=O)(=O)c2ccc([N+](=O)[O-])cc2)s1)(C(F)(F)F)C(F)(F)F)c1ccc(Cl)cc1", "Potency": "inactive"}, {"molecule": "Cc1cc(NS(=O)(=O)c2ccc(NC(=O)COc3ccc(Cl)cc3Cl)cc2)no1", "Potency": "active: 2.69 µM"}, {"molecule": "COc1ccc(C2=NOC(Cn3nc(C(=O)NCc4ccco4)cc3-c3ccccc3)C2)cc1", "note": "(configuration not stated)", "Potency": "inactive"}, {"molecule": "C=C(C)C(=O)Nc1cccc(C2=NOC3(C2)C[C@H](C(N)=O)N(C(=O)c2ccccc2C(=O)c2ccccc2)C3)c1", "note": "(some centres not stated)", "Potency": "active: 10.7 µM"}, {"molecule": "Fc1ccc(CSc2nnc(-c3ccco3)o2)cc1", "activity, negative = inhibition": "inconclusive: -33.7%"}, {"molecule": "Cn1c(SCC(=O)Nc2ccc3nc(SCC(=O)N4CCCC4)sc3c2)nnc1-c1ccc(N)cc1", "Potency": "inconclusive [falling, full curve]"}, {"molecule": "CCOC(=O)c1c(NC(=O)CSc2ncn[nH]2)sc(C(=O)NC)c1C", "Potency": "inconclusive [falling, single point]"}, {"molecule": "COc1ccc(CCC(=O)OCC(=O)Nc2ccc3[nH]c(=O)[nH]c3c2)cc1", "Potency": "inconclusive [falling, single point]"}, {"molecule": "COc1ccccc1C(=O)Nc1ccccc1SC(=O)c1ccccc1OC", "Potency": "inconclusive [falling, partial curve]"}, {"molecule": "CCN1C/C(=C/c2cccs2)c2nc3ccccc3c(C(=O)O)c2C1", "Potency": "inactive"}, {"molecule": "O=C(Nc1cc(S(=O)(=O)N2CCOCC2)ccc1N1CCOCC1)c1ccc([N+](=O)[O-])s1", "Potency": "inconclusive [falling, single point]"}, {"molecule": "Cc1cc(=O)oc2cc(NC(=O)COc3ccccc3[N+](=O)[O-])ccc12", "Potency": "inconclusive [falling, single point]"}, {"molecule": "O=C(N/N=C\\c1ccc(Br)o1)C1COc2ccccc2O1", "note": "(configuration not stated)", "Potency": "inconclusive [falling, single point]"}, {"molecule": "N#Cc1ccccc1NC(=O)CN1CCN(Cc2ccccc2)CC1", "Potency": "inactive"}, {"molecule": "CC(=O)c1cccc(NC(=O)c2ccc3c(c2)CCCC3)c1", "Potency": "inactive"}, {"molecule": "CC(=O)c1ccc2c(c1)C1C=CCC1C(C(=O)O)N2", "note": "(configuration not stated)", "Potency": "active: 8.49 µM"}, {"molecule": "CCOC(=O)C1(Cc2ccc(OC)cc2)CCN(C(=O)c2cc(C)nn2C)CC1", "Potency": "inactive"}, {"molecule": "C=CCn1c(SCC)nc2sc3c(c2c1=O)CCc1ccccc1-3", "Potency": "inactive"}, {"molecule": "O=c1[nH]c2ccccc2n2c(-c3ccccc3)nnc12", "Potency": "inconclusive [falling, partial curve]"}, {"molecule": "O=C1CC(c2ccc(O)c(O)c2)Oc2c1ccc(O)c2O", "note": "(configuration not stated)", "Potency": "inconclusive [falling, partial curve]"}, {"molecule": "O=C1C(=O)N(CCCn2ccnc2)C(c2cccc(Br)c2)/C1=C(\\O)c1ccc2c(c1)OCCO2", "note": "(configuration not stated)", "Potency": "inconclusive [falling, partial curve]"}, {"molecule": "CN(C)Cc1cc(O)c(CN(C)C)cc1O", "Potency": "inconclusive [falling, partial curve]"}, {"molecule": "C=CCn1c(N)c(C(=O)NCCC2=CCCCC2)sc1=S", "Potency": "inconclusive [falling, partial curve]"}, {"molecule": "Cc1ccc2c(c1)C(=C(C#N)C#N)C(=O)N2CCN1CCCCC1", "Potency": "inactive"}, {"molecule": "CN(CC(=O)Nc1sccc1C#N)C1CCCCC1", "Potency": "inactive"}, {"molecule": "Cc1nn2c(=S)[nH]nc2[nH]c1=O", "Potency": "inconclusive [falling, single point]"}, {"molecule": "COc1ccc(N(CC(=O)NCC(C)C)S(=O)(=O)c2ccccc2)cc1", "Potency": "inactive"}, {"molecule": "CCOC(=O)CSc1n[nH]c(=S)s1", "Potency": "inactive"}, {"molecule": "Cc1ccc(S(=O)(=O)Nc2nsc(N)n2)cc1", "Potency": "inactive"}, {"molecule": "O=C(CNC(=O)c1ccco1)OCC(=O)c1ccc([N+](=O)[O-])cc1", "Potency": "inconclusive [falling, partial curve]"}, {"molecule": "CCc1c(C)sc(NC(=O)c2ccoc2C)c1C(N)=O", "Potency": "inconclusive [falling, partial curve]"}, {"molecule": "CCCC(C)NC(=O)/C=C/c1cccc([N+](=O)[O-])c1", "note": "(configuration not stated)", "Potency": "inactive"}, {"molecule": "CCc1nnc(NC(=O)c2ccc(NC(=O)C(C)C)cc2)s1", "Potency": "inactive"}, {"molecule": "Cc1cc(N2CCN(S(=O)(=O)c3ccc4ccccc4c3)CC2)n2ncnc2n1", "Potency": "inactive"}, {"molecule": "CCN1/C(=C/C=C/C=C/c2sc3ccccc3[n+]2CC)Sc2ccccc21", "Potency": "inconclusive [activator, single point]"}, {"molecule": "NC(=O)c1c(NC(=S)Nc2ccccc2)sc2c1CCCC2", "Potency": "inactive"}, {"molecule": "COc1ccc(CCNC(=O)c2c(O)c3cccc4c3n(c2=O)CC4)cc1", "Potency": "inactive"}, {"molecule": "COc1ccc(C2=CC3=C(Br)C(=O)C(C)(OC(=O)c4ccco4)C(=O)C3=CO2)cc1", "note": "(configuration not stated)", "Potency": "inactive"}, {"molecule": "O=c1oc2ccc(Br)cc2cc1S(=O)(=O)c1ccc(F)cc1", "Potency": "inactive"}, {"molecule": "CC(C)C[C@@]12C(=O)N(c3cccc(Cl)c3)C(=O)N1[C@H](c1ccc(F)cc1)[C@@H]1C(=O)N(C3CCCCC3)C(=O)[C@@H]12", "Potency": "inconclusive [falling, single point]"}, {"molecule": "O=C(OCc1cccc([N+](=O)[O-])c1)c1ccc[nH]c1=O", "Potency": "active: 7.57 µM"}, {"molecule": "CC(C)S(=O)(=O)C1=NSC2=NC(=O)/C(=C\\c3ccc(-c4cccc(C(=O)O)c4)o3)C(=N)N21", "Potency": "inconclusive [activator, single point]"}, {"molecule": "CC(OC(=O)Cc1ccc(F)cc1)C(=O)NCc1ccc2c(c1)OCO2", "note": "(configuration not stated)", "Potency": "inconclusive [falling, single point]"}, {"molecule": "Cc1ccc(NC(=O)Cc2ccc(Cl)c(Cl)c2)cc1S(=O)(=O)N(C)C", "Potency": "inconclusive [falling, single point]"}, {"molecule": "O=C(Nc1nnc(C2CC2)s1)c1cc2c(s1)CCCCCC2", "Potency": "inactive"}]}]}
